Data published in PMC5680261.
These are yes or no findings as the source states them, for the method shown. In cells and extracts the contact can be indirect. Some binding calls cover weakened binding; strength is not graded here. Each block holds one substance with its values, some of them ahead of it.

Protein sequences, listed by entry. Tags and fused reporters are not part of them. Lines headed by an entry give the natural chain unless they say otherwise; changes in a name come on top. Residues count along the entry.
UniProt O95202, residues 116-739: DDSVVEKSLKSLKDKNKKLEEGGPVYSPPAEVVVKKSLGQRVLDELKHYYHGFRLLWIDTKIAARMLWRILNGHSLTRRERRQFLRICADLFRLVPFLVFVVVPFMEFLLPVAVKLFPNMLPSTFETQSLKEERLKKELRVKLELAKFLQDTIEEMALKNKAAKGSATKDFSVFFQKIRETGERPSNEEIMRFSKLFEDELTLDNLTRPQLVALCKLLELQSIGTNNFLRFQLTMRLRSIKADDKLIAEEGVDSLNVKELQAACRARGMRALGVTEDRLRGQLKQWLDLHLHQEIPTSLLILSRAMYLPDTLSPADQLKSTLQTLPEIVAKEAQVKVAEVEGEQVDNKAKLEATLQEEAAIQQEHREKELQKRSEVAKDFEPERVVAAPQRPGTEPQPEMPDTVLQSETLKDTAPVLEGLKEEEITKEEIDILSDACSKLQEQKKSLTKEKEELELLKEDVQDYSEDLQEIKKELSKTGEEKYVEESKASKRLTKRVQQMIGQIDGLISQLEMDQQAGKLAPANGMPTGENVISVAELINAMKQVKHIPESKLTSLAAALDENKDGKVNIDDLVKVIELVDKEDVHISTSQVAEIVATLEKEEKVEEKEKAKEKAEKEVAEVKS
UniProt Q9BXM7, residues 78-581: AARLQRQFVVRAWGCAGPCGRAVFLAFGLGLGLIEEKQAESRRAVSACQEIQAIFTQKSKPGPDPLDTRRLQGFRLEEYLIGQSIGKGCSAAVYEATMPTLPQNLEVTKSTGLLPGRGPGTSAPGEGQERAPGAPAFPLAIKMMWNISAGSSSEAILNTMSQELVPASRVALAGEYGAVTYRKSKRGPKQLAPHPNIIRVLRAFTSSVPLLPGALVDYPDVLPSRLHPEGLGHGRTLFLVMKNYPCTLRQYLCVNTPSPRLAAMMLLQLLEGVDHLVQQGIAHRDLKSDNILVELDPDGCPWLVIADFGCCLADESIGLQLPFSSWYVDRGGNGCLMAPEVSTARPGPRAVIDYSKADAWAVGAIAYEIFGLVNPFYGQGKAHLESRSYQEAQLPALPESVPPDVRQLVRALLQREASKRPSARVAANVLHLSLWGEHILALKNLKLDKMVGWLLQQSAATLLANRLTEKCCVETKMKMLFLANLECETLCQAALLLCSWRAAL
UniProt Q8NE86, residues 51-351: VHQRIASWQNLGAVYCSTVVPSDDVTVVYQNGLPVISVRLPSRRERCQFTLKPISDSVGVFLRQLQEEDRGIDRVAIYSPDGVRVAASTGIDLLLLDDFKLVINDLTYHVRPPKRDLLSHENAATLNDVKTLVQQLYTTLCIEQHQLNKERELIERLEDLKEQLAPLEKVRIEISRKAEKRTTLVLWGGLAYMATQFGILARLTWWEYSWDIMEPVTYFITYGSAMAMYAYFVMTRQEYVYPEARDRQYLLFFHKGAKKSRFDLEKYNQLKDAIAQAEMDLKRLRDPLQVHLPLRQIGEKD

Columns and labels:
[1] = target: Myc-tagged LETM1 (pCMV-3Tag-2a LETM1) (human) (UniProt O95202); experiment: co-IP; HEK293 cells co-transfected with p3xFLAG-CMV-PINK1 and pCMV-3Tag-2a LETM1 for 1 day; IP with anti-Myc and blot with anti-FLAG, and the reverse; lysis buffer 50 mM Tris-HCl pH 7.4, 100 mM NaCl, 2 mM EDTA, 1 mM DTT, 1% Triton X-100, 0.1% SDS; 4 °C
[2] = target: FLAG-tagged PINK1 (p3xFLAG-CMV-PINK1) (UniProt Q9BXM7); experiment: as above
[3] = target: endogenous LETM1 (human post-mortem brain) (human (endogenous in post-mortem brain)) (UniProt O95202); experiment: co-IP; human post-mortem brain lysate; IP with control IgG or anti-LETM1 and blot with anti-PINK1, and inversely IP with anti-PINK1 and blot with anti-LETM1
[4] = target: endogenous LETM1 (SH-SY5Y cells) (human (endogenous in SH-SY5Y)) (UniProt O95202); experiment: co-IP; endogenous proteins from human SH-SY5Y neuroblastoma cells
[5] = target: T1, mitochondrial Na+/Ca2+ exchanger (NCLX) (UniProt Q6J4K2); experiment: co-IP; Co-IP between LETM1 and MCU or NCLX in HEK293 cells
T1 sequence: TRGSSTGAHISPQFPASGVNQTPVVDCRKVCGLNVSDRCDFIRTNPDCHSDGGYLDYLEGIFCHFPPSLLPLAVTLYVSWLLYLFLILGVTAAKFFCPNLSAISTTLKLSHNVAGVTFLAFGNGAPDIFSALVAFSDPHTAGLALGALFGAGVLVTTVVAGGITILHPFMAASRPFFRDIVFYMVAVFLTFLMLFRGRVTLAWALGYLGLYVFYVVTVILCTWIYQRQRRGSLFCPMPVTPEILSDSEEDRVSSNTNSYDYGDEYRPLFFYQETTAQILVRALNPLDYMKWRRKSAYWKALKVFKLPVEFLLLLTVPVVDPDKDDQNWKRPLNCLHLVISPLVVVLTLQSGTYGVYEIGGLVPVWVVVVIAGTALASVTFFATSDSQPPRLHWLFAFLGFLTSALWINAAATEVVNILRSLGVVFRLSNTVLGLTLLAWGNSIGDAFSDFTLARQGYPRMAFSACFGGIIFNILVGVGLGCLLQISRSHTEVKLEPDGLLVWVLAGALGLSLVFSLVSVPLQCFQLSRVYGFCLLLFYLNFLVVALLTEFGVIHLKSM

[6] = target: mitochondrial calcium uniporter (MCU) (UniProt Q8NE86); experiment: as above

- binding [1]: binds
Substance: FLAG-tagged PINK1 (p3xFLAG-CMV-PINK1) (from UniProt Q9BXM7 78-581) (enzyme)

- binding [2]: binds
Substance: Myc-tagged LETM1 (pCMV-3Tag-2a LETM1) (from UniProt O95202-1 116-739)

- binding [3]: binds
Substance: endogenous PINK1 (human post-mortem brain) (from UniProt Q9BXM7 78-581) (enzyme)

- binding [4]: binds
Substance: endogenous PINK1 (SH-SY5Y cells) (from UniProt Q9BXM7 78-581) (enzyme)

- binding [5]: no binding
- binding [6]: no binding
Substance: LETM1 (HEK293 cells, Co-IP with MCU or NCLX) (from UniProt O95202 116-739)
